# Experimental data from the supplement of paper PMC3334620.
# In all, about 33,000 sequences were measured (“E-score (-0.5 to 0.5)”: median about -0.043, highest 2% from about 0.37 on). The list shows a part of the results.
# Molecular target: T1, Upc2 (UniProt Q12151)
# T1 sequence: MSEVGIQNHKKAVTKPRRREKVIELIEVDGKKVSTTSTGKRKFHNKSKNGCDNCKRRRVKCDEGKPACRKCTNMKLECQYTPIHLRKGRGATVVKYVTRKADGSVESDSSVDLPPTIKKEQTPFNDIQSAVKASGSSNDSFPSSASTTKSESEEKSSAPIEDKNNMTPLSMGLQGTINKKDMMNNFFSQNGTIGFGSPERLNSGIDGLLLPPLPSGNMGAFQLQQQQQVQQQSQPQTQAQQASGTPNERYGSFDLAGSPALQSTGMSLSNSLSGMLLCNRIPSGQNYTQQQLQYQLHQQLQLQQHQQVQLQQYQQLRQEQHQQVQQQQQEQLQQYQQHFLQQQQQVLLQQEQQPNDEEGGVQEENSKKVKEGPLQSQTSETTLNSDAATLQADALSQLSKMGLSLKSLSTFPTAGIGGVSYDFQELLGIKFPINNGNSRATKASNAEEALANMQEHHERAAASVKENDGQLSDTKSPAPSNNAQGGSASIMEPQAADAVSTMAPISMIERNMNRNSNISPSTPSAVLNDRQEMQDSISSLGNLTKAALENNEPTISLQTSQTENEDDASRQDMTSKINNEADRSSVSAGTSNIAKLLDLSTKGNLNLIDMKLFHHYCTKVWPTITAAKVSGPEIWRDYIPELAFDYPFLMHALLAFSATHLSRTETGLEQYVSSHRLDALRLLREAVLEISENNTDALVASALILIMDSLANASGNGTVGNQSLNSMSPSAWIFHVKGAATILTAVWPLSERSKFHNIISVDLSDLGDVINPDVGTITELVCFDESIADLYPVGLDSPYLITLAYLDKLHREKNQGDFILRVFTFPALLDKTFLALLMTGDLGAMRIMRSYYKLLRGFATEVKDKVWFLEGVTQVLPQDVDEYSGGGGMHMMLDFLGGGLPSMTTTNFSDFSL
# Assay: PBM E-score (8-mer binding enrichment) (E-score (-0.5 to 0.5)); higher = stronger / more preferred TF binding; most listed sequences are background and not binding sites
# Conditions: protein concentration: 200 nM; construct: GST-full length
# Procedure, shortened: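 Full-length yeast transcription factors or their DNA-binding domains, GST-tagged and expressed with PURExpress, were applied at about 100-200 nM to universal all-10-mer Agilent arrays. These arrays had been made double-stranded by primer extension on fresh or once-stripped slides. Detection used fluorescent anti-GST, normalisation used masliner, and E-scores for ungapped eight-base words pooled with reverse complements came from the Universal PBM Analysis Suite.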
row,Sequence,PBM E-score
1,GGAGGTAA,-0.0831
2,AGAGCTCA,-0.346
3,ACCTCATA,-0.125
4,CGCTGTGA,-0.0925
5,AGCCGGTA,-0.0794
6,CCCCCCAG,-0.318
7,GGCTTGAC,-0.318
8,ACAATGAA,-0.0352
9,CGCGACGC,0.155
10,TCAAGCGA,0.196
11,CCGGCGCA,-0.0021
12,CAAGACAC,-0.113
13,CGTACTCA,0.201
14,GGGACAGA,-0.0767
15,GATTACAA,0.0744
16,ATTGGTCG,-0.00448
17,AATGCTCT,-0.106
18,CCCTCCTA,-0.122
19,GCAAATAC,0.0681
20,GACTGAGC,-0.26
21,CATCATAC,0.14
22,ATTATCGA,-0.101
23,GGGGTCGA,-0.257
24,ATATCGAG,-0.124
25,ACGAAGCA,0.344

row,Sequence,PBM E-score
1,AAGCATAG,0.0417
2,ACAGTTGG,-0.0833
3,GATGGAAC,0.0656
4,GCCTAGTA,-0.0743
5,AGAGTTAC,-0.0211
6,CATTATAA,0.249
7,AATGTTTG,-0.00303
8,CGTATGCA,0.377
9,CAGCCAGA,-0.111
10,GAAAGCTC,-0.15
11,AAAAGAGT,-0.0578
12,AGAGAGGC,-0.355
13,CAATATTG,-0.0814
14,AGATTCAA,-0.0749
15,AATTGTCA,-0.0435
16,CGGGGCCC,0.0837
17,TAGACAGA,-0.068
18,ACCGATTG,0.0763
19,AACATGCT,-0.0382
20,GTAACGAA,0.325
21,CCCATACG,0.407
22,CCGCGGTA,0.108
23,CAACGAGA,0.314
24,GCTCTTAC,0.149
25,TGCTCAAA,0.0248

row,Sequence,PBM E-score
1,GAGGGTCA,-0.0962
2,GTACATGA,0.226
3,CTGGCATA,-0.185
4,TCTAGTCA,-0.034
5,CACCACGC,-0.221
6,CAACGAGG,0.278
7,CATAAGCC,-0.116
8,AGAACGCT,-0.08
9,CCAATACG,0.326
10,GACACGGA,0.0341
11,AAGAAATT,0.0426
12,GACCTACA,-0.105
13,AAGCGTGG,-0.0633
14,ACTTCAGC,-0.178
15,GGATTACC,-0.126
16,TGTGACAA,-0.105
17,GATAGGAA,-0.0663
18,TTCCAGAA,0.0881
19,CTTACCCA,-0.112
20,CTGCAATA,0.04
21,GAGATACA,0.00195
22,AGGATCAG,-0.198
23,AAAACGGA,0.089
24,CGTATCAC,0.364
25,CATTGTAC,0.288

row,Sequence,PBM E-score
1,ACAGCAAC,0.0613
2,GTTTCCTA,-0.0102
3,ATCCTAAG,-0.0385
4,CAGCGGGG,-0.165
5,GATACAAA,0.106
6,AAAGACGT,0.0596
7,CATGGTAG,-0.249
8,GCTAGGAC,-0.23
9,TCCCTCAA,-0.193
10,ACGTGTCG,0.12
11,GATTCGGA,0.11
12,ATGGTCGC,0.00642
13,CATTGGCC,-0.225
14,GGATATAA,-0.0447
15,CCTACCCA,-0.122
16,CATCTAGA,0.0683
17,TGTTAACA,-0.171
18,ACTTTTAG,0.0244
19,ACATAAGC,-0.0498
20,GTGCACCA,-0.0747
21,ATACTCAG,0.0421
22,CCATGATA,-0.0551
23,AGAGACCT,-0.156
24,CAGTTGAG,-0.255
25,GCCTCGGA,0.135

row,Sequence,PBM E-score
1,ACACACAT,0.0698
2,GACTCTCA,-0.187
3,CAGATAGC,-0.269
4,GGCCGGGA,-0.0423
5,TACGTCTA,0.123
6,AGGTCGTC,0.0416
7,AATCACAT,-0.157
8,AAGTACTT,-0.0695
9,GCTGCGAA,0.0876
10,CGACACAA,0.0708
11,ACACAGCC,-0.115
12,GGTTCTTA,-0.0238
13,AGATCACT,-0.0701
14,CTAGCATA,-0.092
15,GATAACTA,-0.125
16,AACCCGTA,0.283
17,CTGAGCGC,-0.0276
18,AAGGAGTC,-0.0968
19,CGGAAGGA,-0.252
20,ACTGATAC,0.115
21,ATTGACAC,-0.126
22,AAATCTGC,-0.106
23,GCTCGCCC,-0.17
24,ATGGTTCA,-0.0769
25,CCTTAGAA,-0.183

row,Sequence,PBM E-score
1,GTTCACAA,0.195
2,CTTGATCC,-0.129
3,AAATGGTA,0.159
4,AAAATGCC,0.123
5,GGCGTGAC,-0.276
6,GATGCCGA,0.0445
7,GCTGGAGA,-0.124
8,AACATCCT,-0.165
9,AGACGGCT,-0.251
10,GCCGGGTA,-0.143
11,ACACTTGC,-0.177
12,GTATAACA,0.307
13,GCTGAGAC,-0.203
14,CGAGCTAA,0.124
15,AGGCCTAT,-0.12
16,GCTAATGA,-0.0954
17,GATGCAAA,-0.0157
18,GCGGTCCA,-0.178
19,GAGGTCAA,-0.0747
20,GAAGAGGC,-0.108
21,ATCCAACC,-0.11
22,AGCGTAGG,-0.204
23,CGTCCGGC,-0.0931
24,AAACCGGT,-0.0242
25,CCGGTTCA,-0.152

row,Sequence,PBM E-score
1,GCTATCAA,0.0193
2,AGGTTATG,-0.0442
3,CGCGCGTA,0.242
4,AACAAATC,0.137
5,TGTCTCAA,-0.13
6,GTCTACCA,-0.135
7,TATACCAA,0.117
8,AGTTCTCA,-0.107
9,CGGCGAAG,-0.00659
10,GTATTGAA,0.0502
11,AAAAAATA,0.0722
12,TCTGGCAA,-0.274
13,GCTACTCC,-0.242
14,CTGTAAAA,0.00697
15,ACAGTATA,0.254
16,AGCTCGAT,-0.0109
17,GATCTGGA,-0.117
18,GAAGCTAA,-0.0863
19,ACACCCTG,-0.311
20,AATTCTCG,0.235
21,CCCCCGTC,-0.229
22,GGCATCTA,-0.0348
